Sequences and labels used below:
T1: RBFOX1 RRM (Homo sapiens, UniProt Q9NWB1 109-208)
T1 sequence: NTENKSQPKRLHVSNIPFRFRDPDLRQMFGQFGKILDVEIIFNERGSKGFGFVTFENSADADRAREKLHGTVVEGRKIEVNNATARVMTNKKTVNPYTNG

B1: UUUGUCC (DNA:RNA)
RNA: GGGAGACCGGAAUUCAGAUUGUCCUUUGUCCUUAAAUCCCGUCGUAGCCACCA
DNA 1: CAATCTGAATTCCGGTCTCCC
DNA 2: TGGTGGCTACGACGGGATT
B2: CGCGACC (DNA:RNA)
RNA: B1 RNA with U25C, U26G, U27C, U29A
DNA 1: CAATCTGAATTCCGGTCTCCC
DNA 2: TGGTGGCTACGACGGGATT
B3: ACACCUC (DNA:RNA)
RNA: B1 RNA with U25A, U26C, U27A, G28C, U29C, C30U
DNA 1: CAATCTGAATTCCGGTCTCCC
DNA 2: TGGTGGCTACGACGGGATT
B4: GCCACCG (DNA:RNA)
RNA: B1 RNA with U25G, U26C, U27C, G28A, U29C, C31G
DNA 1: CAATCTGAATTCCGGTCTCCC
DNA 2: TGGTGGCTACGACGGGATT
B5: AAGUACG (DNA:RNA)
RNA: B1 RNA with U25A, U26A, U27G, G28U, U29A, C31G
DNA 1: CAATCTGAATTCCGGTCTCCC
DNA 2: TGGTGGCTACGACGGGATT
B6: GACCCGC (DNA:RNA)
RNA: B1 RNA with U25G, U26A, U27C, G28C, U29C, C30G
DNA 1: CAATCTGAATTCCGGTCTCCC
DNA 2: TGGTGGCTACGACGGGATT
B7: CUGUCCU (DNA:RNA)
RNA: B1 RNA with U25C, U27G, G28U, U29C, C31U
DNA 1: CAATCTGAATTCCGGTCTCCC
DNA 2: TGGTGGCTACGACGGGATT
B8: GCGCAAC (DNA:RNA)
RNA: B1 RNA with U25G, U26C, U27G, G28C, U29A, C30A
DNA 1: CAATCTGAATTCCGGTCTCCC
DNA 2: TGGTGGCTACGACGGGATT
B9: GCAAGGC (DNA:RNA)
RNA: B1 RNA with U25G, U26C, U27A, G28A, U29G, C30G
DNA 1: CAATCTGAATTCCGGTCTCCC
DNA 2: TGGTGGCTACGACGGGATT
B10: GCGAACC (DNA:RNA)
RNA: B1 RNA with U25G, U26C, U27G, G28A, U29A
DNA 1: CAATCTGAATTCCGGTCTCCC
DNA 2: TGGTGGCTACGACGGGATT
B11: GACCAGC (DNA:RNA)
RNA: B1 RNA with U25G, U26A, U27C, G28C, U29A, C30G
DNA 1: CAATCTGAATTCCGGTCTCCC
DNA 2: TGGTGGCTACGACGGGATT
B12: CCCGACU (DNA:RNA)
RNA: B1 RNA with U25C, U26C, U27C, U29A, C31U
DNA 1: CAATCTGAATTCCGGTCTCCC
DNA 2: TGGTGGCTACGACGGGATT
B13: ACAAGAA (DNA:RNA)
RNA: GGGAGACCGGAAUUCAGAUUGUCCACAAGAAUUAAAUCCCGUCGUAGCCACCA
DNA 1: CAATCTGAATTCCGGTCTCCC
DNA 2: TGGTGGCTACGACGGGATT
B14: CAACAUA (DNA:RNA)
RNA: B13 RNA with A25C, C26A, A28C, G29A, A30U
DNA 1: CAATCTGAATTCCGGTCTCCC
DNA 2: TGGTGGCTACGACGGGATT
B15: UCCUGGA (DNA:RNA)
RNA: B13 RNA with A25U, A27C, A28U, A30G
DNA 1: CAATCTGAATTCCGGTCTCCC
DNA 2: TGGTGGCTACGACGGGATT
B16: CUGAUUC (DNA:RNA)
RNA: B1 RNA with U25C, U27G, G28A, C30U
DNA 1: CAATCTGAATTCCGGTCTCCC
DNA 2: TGGTGGCTACGACGGGATT
B17: UUCACUG (DNA:RNA)
RNA: B1 RNA with U27C, G28A, U29C, C30U, C31G
DNA 1: CAATCTGAATTCCGGTCTCCC
DNA 2: TGGTGGCTACGACGGGATT
B18: UGAGGCA (DNA:RNA)
RNA: B13 RNA with A25U, C26G, A28G, A30C
DNA 1: CAATCTGAATTCCGGTCTCCC
DNA 2: TGGTGGCTACGACGGGATT
B19: GACGAGA (DNA:RNA)
RNA: B13 RNA with A25G, C26A, A27C, A28G, G29A, A30G
DNA 1: CAATCTGAATTCCGGTCTCCC
DNA 2: TGGTGGCTACGACGGGATT
B20: AUGUGUC (DNA:RNA)
RNA: B13 RNA with C26U, A27G, A28U, A30U, A31C
DNA 1: CAATCTGAATTCCGGTCTCCC
DNA 2: TGGTGGCTACGACGGGATT

Numbering of substitutions follows the chain as printed; changes in the protein carry UniProt numbers. Some of the results follow.

The target of this assay is T1, RBFOX1 RRM. Description: EMSA; HiTS-Eq, 1 nM pool, 10 min; buffer printed only for the single-RNA assays: 10 mM Tris pH 7.5, 150 mM NaCl, 3.4 mM EDTA, 0.001% NP-40, 30 C. To be noted: tags: His6 N-terminal (pET28a); label: 5' 32P. In short, it runs like this:
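A pool of RNA with 7 randomized nucleotides, 5′-radiolabelled and with DNA-annealed flanks, was equilibrated at 1 nM for 10 min in 50 µL with purified RbFox RRM, wild type or mutant, across increasing protein concentrations. Free RNA was separated by 8% native PAGE, excised, reverse-transcribed, barcoded by PCR and sequenced. Relative association constants were obtained from read-count changes of each RNA species versus the control reaction and normalised to the cognate motif.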
B1: the binding signal was 0.0149 KA relative to UGCAUGU.

On to B2, for which the binding signal was 0.0104 KA relative to UGCAUGU.

Regarding B3, the binding signal is 0.000397 KA relative to UGCAUGU.

B4: the binding signal was 0.0074 KA relative to UGCAUGU.

For the molecule B5, the binding signal is 0.0114 KA relative to UGCAUGU.

With B6, the binding signal is 0.00709 KA relative to UGCAUGU.

Consider B7, for which the binding signal was 0.00988 KA relative to UGCAUGU.

For the molecule B8, the binding signal was 0.0089 KA relative to UGCAUGU.

As to B9, the binding signal is 0.00843 KA relative to UGCAUGU.

As for B10, the binding signal is 0.00673 KA relative to UGCAUGU.

Regarding B11, the binding signal was 0.00826 KA relative to UGCAUGU.

B12: the binding signal was 0.01 KA relative to UGCAUGU.

On to B13, for which the binding signal was 0.000967 KA relative to UGCAUGU.

Turning to B14, the binding signal was 0.000418 KA relative to UGCAUGU.

On to B15, for which the binding signal is 0.00715 KA relative to UGCAUGU.

As for B16, the binding signal is 0.00958 KA relative to UGCAUGU.

Regarding B17, the binding signal is 0.0107 KA relative to UGCAUGU.

Take B18: the binding signal was 0.0197 KA relative to UGCAUGU.

Regarding B19, the binding signal is 0.015 KA relative to UGCAUGU.

For B20, the binding signal was 0.0152 KA relative to UGCAUGU.
